From paper PMC5013049
No constants are given. Whether binding was seen depends on the method and setting. Some results given as binding are weak or reduced against the parent protein; the word gives no strength.

Amino acid sequences for entries named in this document (tags omitted).
UniProt Q1EH97: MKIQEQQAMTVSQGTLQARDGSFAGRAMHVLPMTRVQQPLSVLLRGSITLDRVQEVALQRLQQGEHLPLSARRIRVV
UniProt Q699Q6: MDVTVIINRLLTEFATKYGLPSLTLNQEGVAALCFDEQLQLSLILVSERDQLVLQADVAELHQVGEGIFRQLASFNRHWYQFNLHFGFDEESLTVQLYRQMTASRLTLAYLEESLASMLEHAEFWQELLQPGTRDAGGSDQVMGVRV

Legend:
[1] = target: MBP-ExsE (Aeromonas hydrophila) (UniProt Q1EH97); experiment: far-Western, overlay or dot blot; in reverse: MBP-fused Exs proteins blotted on nitrocellulose, probed with HisExsD; detected by the tag of the probe; both purified
[2] = target: HisExsE (Aeromonas hydrophila) (UniProt Q1EH97); experiment: far-Western, overlay or dot blot; purified His-tagged Exs proteins separated by SDS-PAGE and blotted on nitrocellulose; probed 1 h with an MBP-fused Exs protein or MBP5; detected with anti-MBP; PBST washes; both purified
[3] = target: HisExsC (Aeromonas hydrophila) (UniProt Q699Q6); experiment: as above
[4] = target: ExsE (BACTH fusion) (Aeromonas hydrophila) (UniProt Q1EH97); experiment: two-hybrid; BACTH (Euromedex kit): T25 and T18 fusions co-transformed into E. coli BTH101, MacConkey/maltose agar with 0.5 mM IPTG, 2 nights at 30°C; pink/red colonies positive, white negative; each exs gene in all four vectors; three times for each combination
[5] = target: ExsD (BACTH fusion) (Aeromonas hydrophila) (UniProt Q699Q3); experiment: as above

| Substance | binding [2] | binding [4] | further results |
| --- | --- | --- | --- |
| HisExsD (from UniProt Q699Q3 1-271) | – | – | binding [1]: no binding |
| MBP-ExsC (from UniProt Q699Q6 1-147) | binds | – | – |
| MBP-ExsE (from UniProt Q1EH97 1-77) | binds | – | binding [3]: binds |
| ExsC (BACTH fusion) (from UniProt Q699Q6 1-147) | – | binds | – |
| ExsD (BACTH fusion) (from UniProt Q699Q3 1-271) | – | – | binding [5]: no binding |
| ExsE (BACTH fusion) (from UniProt Q1EH97 1-77) | – | binds weakly | – |
